# Laboratory results taken from the supplement of paper PMC3334620.
# The full ranking holds about 33,000 sequences; the median of “E-score (-0.5 to 0.5)” is about -0.016, and the highest 2% start at about 0.31. The list shows a part of the results.
# Biological target: Cst6 (UniProt P40535)
# Experiment: PBM E-score (8-mer binding enrichment) (E-score (-0.5 to 0.5)); higher = stronger / more preferred TF binding; most listed sequences are background and not binding sites
# Details: protein concentration: 200 nM; construct: GST-DNA-binding domain
# Procedure, shortened: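 Each ungapped eight-base word and its reverse complement, pooled, received an E-score from the Universal PBM Analysis Suite. Underlying scans, normalised with masliner, recorded fluorescent anti-GST bound to GST-tagged yeast transcription factors. These were applied at about 100-200 nM to universal all-10-mer Agilent arrays double-stranded by primer extension.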
row,Sequence,PBM E-score
1,GCGACTCA,-0.219
2,GGAACAAA,0.18
3,GAAAATTA,0.195
4,CAGGCTCG,-0.188
5,TCACGTGA,0.1
6,GTCCCAAA,-0.0736
7,CTAACTAC,-0.0492
8,CATTTGAC,0.12
9,CCGACGGA,-0.164
10,GTAGGACA,-0.0243
11,CTTGAGCA,-0.0965
12,ACGGCAAT,0.329
13,ATCCGGCC,-0.218
14,CTTGACAC,-0.012
15,GCCCTATA,0.0742
16,TAAAAAGA,0.204
17,ACGTGCGC,0.174
18,CAACGCCA,-0.0134
19,TTCCCAAA,0.0034
20,CATGCTGA,0.042
21,ATACGAGC,-0.00904
22,CATACTGG,-0.097
23,GTTCTGTA,0.0269
24,ACTTCAGG,-0.105
25,AGAACATA,0.0483

row,Sequence,PBM E-score
1,AAGGAACG,-0.036
2,ATCATACG,0.308
3,AGCCGCCG,0.155
4,ATACTGAA,0.115
5,AACACCTG,0.0999
6,CGTTGACC,0.0608
7,GAAGCATC,-0.145
8,CCAATGGA,-0.152
9,CAGCTGGC,-0.0549
10,CTTAACGC,-0.0467
11,ACCCCAGG,-0.327
12,CTGGAACC,-0.193
13,AACCAGCT,0.0683
14,AGTCAGAT,-0.0377
15,AGGCTATG,-0.166
16,CGTGATTA,0.196
17,GAGTTAAC,-0.0651
18,CCAGGCGC,-0.0802
19,ACGACGAC,-0.0559
20,GAACATCA,-0.098
21,GCTCGTCC,-0.154
22,ATGTGTAA,0.0549
23,CAGTGCGC,-0.299
24,ACATGTTA,0.114
25,CTAGTATC,-0.0254

row,Sequence,PBM E-score
1,AACATACT,0.0822
2,CATAAGCA,-0.0945
3,TAACACCA,0.143
4,CTATATGC,0.00303
5,CGACGCTA,-0.0616
6,AGCCGAGG,-0.081
7,AATTTGAA,0.0886
8,GATCTAGC,-0.152
9,CCGATAAG,-0.0428
10,TCTCGAGA,-0.0075
11,AGGTCTAT,-0.123
12,AGATCAAT,0.0915
13,GCTTATAA,0.153
14,ACCGCAGA,-0.141
15,CTCACGAC,-0.0959
16,AAGGCTGG,-0.148
17,CCCAAAAG,-0.0807
18,AGTGGAGA,-0.00399
19,ATAGTGGC,-0.0079
20,ATAGGGGG,-0.398
21,ACGACAGT,0.0713
22,AATACTCA,0.185
23,TACGCGCA,0.0423
24,AGTCTGGC,-0.297
25,CGAACATC,-0.027

row,Sequence,PBM E-score
1,GTCCCAGA,-0.299
2,CCCGTGCA,-0.125
3,CCTCAGAG,-0.248
4,AGCCTTAG,-0.0338
5,AGGTGTGC,-0.206
6,ACATTATG,0.221
7,GATTGAAA,0.163
8,CTATCTGA,-0.217
9,GCCGTCGC,0.0532
10,ACGCTTTA,-0.136
11,TAATCTGA,0.146
12,CGATTTCC,-0.0257
13,CAGGTCAC,-0.192
14,GGCAGATA,-0.0889
15,CCCACCGA,-0.131
16,GTAGTACA,-0.0107
17,ATCACGAT,0.162
18,ACGCTAAG,-0.08
19,GGACAGGA,-0.186
20,ATCGAAGG,0.0082
21,GTGTGAAA,0.259
22,AACTTGAG,-0.263
23,ATGTGCTA,0.0373
24,AGTAACTC,-0.0124
25,GTCCCACA,-0.0855

row,Sequence,PBM E-score
1,CATCCACA,-0.0043
2,CGACCATC,-0.247
3,GGTGAAAC,0.0242
4,TCAGATCA,0.115
5,GTACGAGA,-0.0827
6,ACATGACC,0.007
7,AGTAAGAC,0.0965
8,GAAACTCC,-0.395
9,CTTTTATC,0.0238
10,ATTTCGAA,0.175
11,CTTGTCCC,0.00557
12,CAGGCGAC,-0.0995
13,AGTGTGGG,-0.0648
14,GGCGATTA,0.188
15,AGCAAAGG,0.0127
16,AATGCTAA,0.0492
17,ACGCAGAG,0.018
18,GGTTAAGA,-0.0367
19,ATCTCGTA,0.194
20,AACGGAGT,0.0494
21,ACGTAAGC,0.381
22,CGAGGTGC,-0.0095
23,GCTAGCTA,0.0346
24,GGTTAGAA,-0.139
25,TACTAGAA,0.149

row,Sequence,PBM E-score
1,AGCAAATA,0.113
2,GGCTCTAA,0.0964
3,CAAGGGTC,-0.169
4,CGTAACGC,0.185
5,AGGTCAAG,-0.0961
6,CCCGCTTA,-0.00656
7,GCAGCTCC,-0.303
8,CAGCCATG,-0.16
9,GTTGCGTA,0.264
10,CGAAATAC,0.194
11,AAGCTATA,0.0756
12,CGGTATTC,-0.0796
13,AAAGTTAT,0.281
14,CCAGATAG,-0.0711
15,GGTATGAA,-0.046
16,GGGTTGCA,-0.0507
17,AAGATTGC,-0.107
18,CTGCGTGA,0.119
19,ATTATATC,0.327
20,GAGCCCAA,-0.126
21,CATGCACC,-0.112
22,CTCGAGTC,-0.0069
23,ATGGAGAC,-0.141
24,TGAGCAAA,0.158
25,AGAACGCA,0.0192

row,Sequence,PBM E-score
1,TCGATCAA,-0.0743
2,CCAAGGAC,-0.224
3,CAAGCTGC,-0.0411
4,CAATAACA,0.0661
5,AGTGCTAC,-0.113
6,AGAATTGC,0.119
7,CCTACATC,-0.0998
8,GCTCATCA,0.213
9,ACAGACAC,-0.141
10,CGTGCTTA,0.147
11,ACTATTCT,0.00306
12,GCCATCCC,-0.176
13,CTCGCGTC,0.0721
14,CAATATAC,-0.0952
15,AGTTGACA,0.191
16,CCGGCGTC,-0.0641
17,ACCGCATA,0.0851
18,ACACCGAT,-0.234
19,CTCGTATC,0.0118
20,CAACAGTC,-0.0748
21,CGGTTTCC,-0.109
22,AATCACGA,-0.0788
